Laboratory results taken from PMC6451091.
Some of the results follow. For part of these data: At the low end of the ranking the order means little. For part of these data: Measured with an extract: partners may take part in the binding.

Experiments:
Settings in all cases: 20 mM HEPES pH 7.9, 100 mM NaCl, 1 mM DTT, 0.2 mg/mL BSA, 0.02% Triton X-100, 2% milk, 0.4 mg/mL salmon testes DNA; 1 h; temperature not stated; high values mean tight binding; double strand, one strand shown; sequences stand for … in GCCTAGCAC…GTGCTAGGTCTTGATTCGCTTGACGCTGCTG
PU.1 (IVT) = PU.1 (IVT) (UniProt P17947); test: protein-binding microarray (PBM)
[1] = molecular target: PU.1 (endogenous, THP-1 nuclear extract) (UniProt P17947); test: nuclear extract protein-binding microarray (nextPBM)
[2] = molecular target: T1, FLI1 (endogenous, THP-1 nuclear extract) (UniProt Q01543); test: as above
T1 sequence: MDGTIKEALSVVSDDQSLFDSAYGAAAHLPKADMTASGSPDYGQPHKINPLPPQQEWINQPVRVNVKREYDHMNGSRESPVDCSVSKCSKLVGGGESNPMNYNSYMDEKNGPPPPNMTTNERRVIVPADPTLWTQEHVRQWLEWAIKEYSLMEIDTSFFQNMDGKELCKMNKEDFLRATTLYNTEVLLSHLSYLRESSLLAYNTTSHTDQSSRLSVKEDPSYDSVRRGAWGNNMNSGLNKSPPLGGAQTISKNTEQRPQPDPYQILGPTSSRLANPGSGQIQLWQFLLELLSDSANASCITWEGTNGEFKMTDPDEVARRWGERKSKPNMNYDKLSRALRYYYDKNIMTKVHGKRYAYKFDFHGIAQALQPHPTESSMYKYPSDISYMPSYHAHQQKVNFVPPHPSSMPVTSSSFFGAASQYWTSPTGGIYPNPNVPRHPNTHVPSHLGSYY

Sequence | binding signal (PU.1 (IVT)) [z-score] | binding signal [1] [z-score] | binding signal [2] [z-score]
GAAAAGAGGAAGTCAATTTG | 8.54 | 7.56 | 4.55
GCAAAAGGGAAGTGAAGGGT | 4.3 | 4.99 | 2.16
AGAAAGAGGAAATGACCTAT | 5.8 | 6.42 | 3.37
GTGCAGGGGAAGTGGGAAGG | 3.15 | 3.06 | 2.13
GAAATGAGGAAGTGTCACAT | 7.58 | 7.2 | 3.52
CGAGAGGGGAAGTGCTAAAC | 4.37 | 4.15 | 2.28
GCTATAGGGAAGTGGGCAGT | 4.02 | 4.54 | 1.57
GAAAAAAGGAACTGCTGAGA | 4.01 | 3.79 | 1.35
TAAAAAAGGAACTGCAATTA | 3.75 | 3.27 | 1.1
CAAAGGGGGAAGTGGAAGCA | 5.32 | 5.21 | 2.43
ATGAAGAGGAAGTGAACTAA | 5.04 | 5.86 | 3.17
TCAGGGAGGAACTGAAATGG | 2.21 | 2.42 | 1.02
TCAAGGAGGAAGTGCCAGAA | 5.11 | 5.29 | 2.53
CCGAAGGGGAAGTCAGAAAG | 4.35 | 4.33 | 1.87
GAAAAGAGGAAGTCCTCTGT | 8.28 | 7.26 | 4.23
TGAAAGAGGAAGTACAACCA | 7.66 | 7.23 | 4.37
AGAAACAGGAAGTGCTATTA | 7.63 | 7.3 | 5.71
CGAAAGGGGGAGTGCTAAAC | -0.398 | -0.486 | 0.304
AGGAAGGGGAAGTGGAAGAG | 5.81 | 6 | 3.28

Sequence | binding signal (PU.1 (IVT)) [z-score] | binding signal [1] [z-score] | binding signal [2] [z-score]
GATAAGAGGAAGTCCTCTGG | 5.89 | 6.47 | 2.8
CAAAACAGGAAGTCCCATAG | 6.93 | 7.01 | 4.83
CAAATGAGGTACTGATGCGG | 0.387 | 0.796 | 0.0801
AACAACAGGAAGTGGCTCCT | 4.3 | 4.58 | 5.13
AGAAAGGGGAAGTGAGTAAA | 7.74 | 7.06 | 3.63
GAGGAAGGGAAGTGAGACAT | 2.65 | 2.67 | 1.58
CAAATGAGGCACTGATGCGG | -0.204 | 0.227 | -0.443
TGAAAGGGGAAGTGGATACT | 6.64 | 6.93 | 3.31
CTAATAGGGAAGTGGCCAAG | 4.86 | 5.49 | 1.63
AAAAACAGGAAGTGAACCAG | 7.91 | 7.18 | 5.12
ACAAAAACGAACTGTGCCCC | -0.339 | -0.132 | 0.0928
GAAACCAGGAAGTCCCATAG | 3.78 | 4.21 | 2.56
GAAAAGGAGAAGTGGTCCCA | 5.14 | 5.96 | 2.15
CAGAAGAGGAACTGAGCCAC | 3.69 | 4.52 | 1.5
CAGAAAAGGAACTGGGTATG | 1.98 | 1.58 | 0.972
AAAAGGAGGAACTGGTTAGG | 4.78 | 4.8 | 1.26
TGGAAAGGGAAGTGTTTACT | 3.97 | 3.78 | 1.85
AATAAGGGGAAGTGAAGGCA | 5.58 | 6.4 | 2.9
AAATAGAGGAAGTGCATTTT | 7.69 | 7.35 | 3.46

Sequence | binding signal (PU.1 (IVT)) [z-score] | binding signal [1] [z-score] | binding signal [2] [z-score]
AACAAGAGGAAGTGAGAGGA | 4.97 | 5.31 | 2.72
TTTTAGAGGAACTGCAAAAA | 2.94 | 2.73 | 0.901
AAAAACAGGAAGTGAGAATC | 8.18 | 7.27 | 5.49
GCCTAGAGGAAGTGGGCAAT | 3.32 | 3.16 | 2.49
AAGAAGGGGAAGTGGAAACC | 5.65 | 6.46 | 2.89
TAAAAGGGGAAGTCAGACAT | 7.25 | 7.31 | 3.24
TAAAGAGGGAAGTGGGAGCC | 3.74 | 4.56 | 1.7
GAGGAAGGGAAGTGGATAGA | 2.89 | 2.72 | 2
GACAACAGGAAGTGGGAGTT | 4.38 | 4.52 | 5.17
GGTAAGAGGAAGTCCTCTGT | 5.67 | 6.26 | 2.82
AAATAAAGGAAGTGGATGAT | 4.59 | 4.7 | 2.84
CAAAAAGGGAAGTGGGTTGA | 7.02 | 6.78 | 3.08
AAAAAAGGGAACTGGCTAGA | 5.22 | 5.79 | 1.56
AAAAGAAGGAAGTGGTTTAT | 6.15 | 6.22 | 3.22
TAAAAAGGGAAGTCATGACC | 5.88 | 6.16 | 1.96
CAAAGCGGGAAGTGGGTGGG | 2.86 | 3.04 | 1.77
CCCAAAAGGAAGTGAGATAT | 2.34 | 2.42 | 2.53
AAAAGGAGGAAGTACTGTGA | 7.12 | 7.06 | 3.39
AAGAAGAGGAACTGGCAAGT | 4.41 | 4.49 | 1.52
